# The supplement of paper PMC12217912
# The list shows a part of the results. The full chains were built here from the parent and the listed change. Values near 0.05 are background.
# B1: TEV protease; numbered along this chain (parent)
# chain: MGESLFKGPRDYNPISSSICHLTNESDGHTTSLYGIGFGPFIITNKHLFRRNNGTLVVQSLHGVFKVKDTTTLQQHLVDGRDMIIIRMPKDFPPFPQKLKFREPQREERICLVTTNFQTKSMSSMVSDTSCTFPSGDGIFWKHWIQTKDGQCGSPLVSTRDGFIVGIHSASNFTNTNNYFTSVPKNFMELLTNQEAQQWVSGWRLNADSVLWGGHKVFMVKPEEPFQPVKEATQL
# Variants of: B1
# Test: raw area under fraction-flipped curve 0-4 h after induction (AUC4h, not background-subtracted), DNA-recorder readout of cleavage of the substrate (dimensionless); higher = more cleavage of the substrate by the protease variant
# Settings: temperature: 34 °C; time window: 0-4 h after rhamnose induction
# Protocol: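 In vivo DNA recorder in E. coli TOP10(DE3) ΔrhaA at 34 °C. Each TEVp single-site mutant (parent TEVp 0) is paired with a single-site variant of the 7-mer TEVs (canonical ENLYFQ|S). The substrate sits between flexible linkers in a Bxb1-sfGFP-TEVs-SsrA fusion, so cleavage stabilises Bxb1 and speeds flipping of a recombination array, read by NGS. The value is the raw area under the fraction-flipped curve over 0-4 h after rhamnose induction (AUC4h), with ≥20 reads per time point. It is not background-subtracted; inactive controls average about 0.047.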
# 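Note: Bxb1 expression induced with 0.2% (w/v) L-rhamnose at OD600 near 0.5, cultures sampled hourly, flipped fraction per protease–substrate barcode pair counted by paired-end Illumina sequencing.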
Variant,area with substrate ENLYFQC,area with substrate ENLYFQG,area with substrate ENLYFQK,area with substrate ENLYFQL,area with substrate ENLYFQN,area with substrate ENLYFQS,area with substrate ENLYFQT,area with substrate ENLYFQV,area with substrate ENLYFQW,area with substrate ENLYFQH,area with substrate ENLYFQI,area with substrate ENLYFQM,area with substrate ENLYFQP,area with substrate ENLYFQQ,area with substrate ENLYFQR,area with substrate ENLYFQY,area with substrate ENLYFQE,area with substrate ENLYFQD,area with substrate ENLYFQF
MGESLFKGPRDYNPISSSICHLTNESDGHTTSLYGIGFGPFIITNKHLFRRNNGTLVVQSLHGVFKVKDTTTLQQHLVDGRDMIIIRMPKDFPPFPQKLKFREPQREERICLVTTNFQTKSMSSMVSDTSCTFPSGDGIFWKHWIQTKDGQCGSPLVSTRDGFIVGIHSASNFTNTKNYFTSVPKNFMELLTNQEAQQWVSGWRLNADSVLWGGHKVFMVKPEEPFQPVKEATQL [N177K],0.134,0.116,0.045,0.0733,0.0656,0.113,0.0709,0.0493,0.0625,–,–,–,–,–,–,–,–,–,–
MGESLFKGPRDYNPISSSICHLTNESDGHTTSLYGIGFGPFIITNKHLFRRNNGTLVVQSLHGVFKVKDTTTLQQHLVDGRDMIIIRMPKDFPPFPQKLKFREPQREERICLVTTNFQTKSMSSMVSDTSCTFPSGDGIFWKHWIQTKDGQCGSPLVSTRDGFIVGIHSASNFTNTNTYFTSVPKNFMELLTNQEAQQWVSGWRLNADSVLWGGHKVFMVKPEEPFQPVKEATQL [N178T],0.0716,0.0665,0.0644,–,0.0664,0.0713,0.0515,0.0573,0.0625,0.0585,0.0555,0.0658,0.0542,0.0636,0.0628,0.0586,–,–,–
MGESLFKGPRDYNPISSSICHLTNESDGHTTSLYGIGFGPFIITNKHLFRRNNGTLVVQSLHGVFKVKDTTTLQQHLVDGRDMIIIRMPKDFPPFPQKLKFREPQREERICLVTTNFQTKSMSSMVSDTSCTFPSGDGIFWKHWIQTKDGQCGSPLVSTRDGFIVGIHSASNFTNTNNNFTSVPKNFMELLTNQEAQQWVSGWRLNADSVLWGGHKVFMVKPEEPFQPVKEATQL [Y179N],0.0788,–,–,0.0656,–,0.0576,0.0531,–,0.0474,–,–,–,–,–,–,–,0.0495,–,–
MGESLFKGPRDYNPISSSICHLTNESDGHTTSLYGIGFGPFIITNKHLFRRNNGTLVVQSLHGVFKVKDTTTLQQHLVDGRDMIIIRMPKDFPPFPQKLKFREPQREERICLVTTNFQTKSMSSMVSDTSCTFPSGDGIFWKHWIQTKDGQCGSPLVSTRDGFIVGIHSASNFTNTNNVFTSVPKNFMELLTNQEAQQWVSGWRLNADSVLWGGHKVFMVKPEEPFQPVKEATQL [Y179V],0.0633,0.0628,–,0.0651,0.0872,0.0634,–,–,–,0.0629,–,0.0596,–,0.0482,0.063,0.0597,–,–,–
MGESLFKGPRDYNPISSSICHLTNESDGHTTSLYGIGFGPFIITNKHLFRRNNGTLVVQSLHGVFKVKDTTTLQQHLVDGRDMIIIRMPKDFPPFPQKLKFREPQREERICLVTTNFQTKSMSSMVSDTSCTFPSGDGIFWKHWIQTKDGQCGSPLVSTRDGFIVGIHSASNFTNTNNYQTSVPKNFMELLTNQEAQQWVSGWRLNADSVLWGGHKVFMVKPEEPFQPVKEATQL [F180Q],0.0283,–,–,0.0512,0.0347,0.0597,–,–,–,–,–,–,–,–,0.0617,–,–,–,–
MGESLFKGPRDYNPISSSICHLTNESDGHTTSLYGIGFGPFIITNKHLFRRNNGTLVVQSLHGVFKVKDTTTLQQHLVDGRDMIIIRMPKDFPPFPQKLKFREPQREERICLVTTNFQTKSMSSMVSDTSCTFPSGDGIFWKHWIQTKDGQCGSPLVSTRDGFIVGIHSASNFTNTNNYFRSVPKNFMELLTNQEAQQWVSGWRLNADSVLWGGHKVFMVKPEEPFQPVKEATQL [T181R],0.0503,–,0.0411,0.0471,0.0426,0.0521,0.0485,0.0536,–,–,–,–,–,–,0.0598,0.0499,–,–,–
MGESLFKGPRDYNPISSSICHLTNESDGHTTSLYGIGFGPFIITNKHLFRRNNGTLVVQSLHGVFKVKDTTTLQQHLVDGRDMIIIRMPKDFPPFPQKLKFREPQREERICLVTTNFQTKSMSSMVSDTSCTFPSGDGIFWKHWIQTKDGQCGSPLVSTRDGFIVGIHSASNFTNTNNYFTLVPKNFMELLTNQEAQQWVSGWRLNADSVLWGGHKVFMVKPEEPFQPVKEATQL [S182L],0.0685,0.122,–,–,–,0.062,–,–,–,0.053,0.0411,–,–,–,–,–,–,0.0466,–
MGESLFKGPRDYNPISSSICHLTNESDGHTTSLYGIGFGPFIITNKHLFRRNNGTLVVQSLHGVFKVKDTTTLQQHLVDGRDMIIIRMPKDFPPFPQKLKFREPQREERICLVTTNFQTKSMSSMVSDTSCTFPSGDGIFWKHWIQTKDGQCGSPLVSTRDGFIVGIHSASNFTNTNNYFTSSPKNFMELLTNQEAQQWVSGWRLNADSVLWGGHKVFMVKPEEPFQPVKEATQL [V183S],0.107,0.0868,0.0569,0.0507,0.0769,0.0867,–,0.0642,0.0304,0.0688,0.0464,0.0726,0.0392,–,–,0.0781,–,–,–
MGESLFKGPRDYNPISSSICHLTNESDGHTTSLYGIGFGPFIITNKHLFRRNNGTLVVQSLHGVFKVKDTTTLQQHLVDGRDMIIIRMPKDFPPFPQKLKFREPQREERICLVTTNFQTKSMSSMVSDTSCTFPSGDGIFWKHWIQTKDGQCGSPLVSTRDGFIVGIHSASNFTNTNNYFTSVDKNFMELLTNQEAQQWVSGWRLNADSVLWGGHKVFMVKPEEPFQPVKEATQL [P184D],0.111,–,0.0526,–,–,0.0755,0.0719,–,0.0469,–,0.0544,0.0725,0.0471,–,0.054,0.0597,–,–,–
MGESLFKGPRDYNPISSSICHLTNESDGHTTSLYGIGFGPFIITNKHLFRRNNGTLVVQSLHGVFKVKDTTTLQQHLVDGRDMIIIRMPKDFPPFPQKLKFREPQREERICLVTTNFQTKSMSSMVSDTSCTFPSGDGIFWKHWIQTKDGQCGSPLVSTRDGFIVGIHSASNFTNTNNYFTSVTKNFMELLTNQEAQQWVSGWRLNADSVLWGGHKVFMVKPEEPFQPVKEATQL [P184T],0.0901,–,0.06,0.047,0.0693,0.093,0.0649,–,–,–,0.0638,–,–,–,0.0526,–,–,0.0722,–
MGESLFKGPRDYNPISSSICHLTNESDGHTTSLYGIGFGPFIITNKHLFRRNNGTLVVQSLHGVFKVKDTTTLQQHLVDGRDMIIIRMPKDFPPFPQKLKFREPQREERICLVTTNFQTKSMSSMVSDTSCTFPSGDGIFWKHWIQTKDGQCGSPLVSTRDGFIVGIHSASNFTNTNNYFTSVPQNFMELLTNQEAQQWVSGWRLNADSVLWGGHKVFMVKPEEPFQPVKEATQL [K185Q],0.102,0.0904,0.0672,–,0.0825,0.104,0.0614,0.0504,0.0654,0.0861,0.0656,0.0865,0.0597,–,0.0382,–,–,–,0.0837
MGESLFKGPRDYNPISSSICHLTNESDGHTTSLYGIGFGPFIITNKHLFRRNNGTLVVQSLHGVFKVKDTTTLQQHLVDGRDMIIIRMPKDFPPFPQKLKFREPQREERICLVTTNFQTKSMSSMVSDTSCTFPSGDGIFWKHWIQTKDGQCGSPLVSTRDGFIVGIHSASNFTNTNNYFTSVPKIFMELLTNQEAQQWVSGWRLNADSVLWGGHKVFMVKPEEPFQPVKEATQL [N186I],0.094,0.0644,–,0.0334,–,0.0786,–,–,–,0.069,–,–,0.057,–,0.0562,–,–,0.0728,–
MGESLFKGPRDYNPISSSICHLTNESDGHTTSLYGIGFGPFIITNKHLFRRNNGTLVVQSLHGVFKVKDTTTLQQHLVDGRDMIIIRMPKDFPPFPQKLKFREPQREERICLVTTNFQTKSMSSMVSDTSCTFPSGDGIFWKHWIQTKDGQCGSPLVSTRDGFIVGIHSASNFTNTNNYFTSVPKNLMELLTNQEAQQWVSGWRLNADSVLWGGHKVFMVKPEEPFQPVKEATQL [F187L],0.119,0.149,0.0585,0.046,0.0737,0.108,0.0602,0.0447,0.108,0.0716,–,0.0754,–,–,0.066,–,0.0897,–,–
MGESLFKGPRDYNPISSSICHLTNESDGHTTSLYGIGFGPFIITNKHLFRRNNGTLVVQSLHGVFKVKDTTTLQQHLVDGRDMIIIRMPKDFPPFPQKLKFREPQREERICLVTTNFQTKSMSSMVSDTSCTFPSGDGIFWKHWIQTKDGQCGSPLVSTRDGFIVGIHSASNFTNTNNYFTSVPKNFMRLLTNQEAQQWVSGWRLNADSVLWGGHKVFMVKPEEPFQPVKEATQL [E189R],0.0955,0.0804,0.0669,0.0601,–,0.095,0.0629,0.0762,0.0642,–,–,–,0.0516,0.0702,0.0579,0.0698,0.0425,–,–
MGESLFKGPRDYNPISSSICHLTNESDGHTTSLYGIGFGPFIITNKHLFRRNNGTLVVQSLHGVFKVKDTTTLQQHLVDGRDMIIIRMPKDFPPFPQKLKFREPQREERICLVTTNFQTKSMSSMVSDTSCTFPSGDGIFWKHWIQTKDGQCGSPLVSTRDGFIVGIHSASNFTNTNNYFTSVPKNFMECLTNQEAQQWVSGWRLNADSVLWGGHKVFMVKPEEPFQPVKEATQL [L190C],0.11,–,0.0615,0.068,–,0.105,0.0574,0.0668,–,–,–,0.0939,–,–,–,0.076,0.0589,–,0.104
MGESLFKGPRDYNPISSSICHLTNESDGHTTSLYGIGFGPFIITNKHLFRRNNGTLVVQSLHGVFKVKDTTTLQQHLVDGRDMIIIRMPKDFPPFPQKLKFREPQREERICLVTTNFQTKSMSSMVSDTSCTFPSGDGIFWKHWIQTKDGQCGSPLVSTRDGFIVGIHSASNFTNTNNYFTSVPKNFMEQLTNQEAQQWVSGWRLNADSVLWGGHKVFMVKPEEPFQPVKEATQL [L190Q],0.0941,0.0588,0.0598,0.109,–,0.0908,–,–,0.0629,–,0.0687,0.0627,0.0543,–,0.0646,–,–,0.056,–
MGESLFKGPRDYNPISSSICHLTNESDGHTTSLYGIGFGPFIITNKHLFRRNNGTLVVQSLHGVFKVKDTTTLQQHLVDGRDMIIIRMPKDFPPFPQKLKFREPQREERICLVTTNFQTKSMSSMVSDTSCTFPSGDGIFWKHWIQTKDGQCGSPLVSTRDGFIVGIHSASNFTNTNNYFTSVPKNFMESLTNQEAQQWVSGWRLNADSVLWGGHKVFMVKPEEPFQPVKEATQL [L190S],0.0987,0.109,–,–,0.0716,0.0897,0.0796,0.0749,–,0.0526,0.0464,–,–,–,0.0111,–,–,0.0571,0.0964
MGESLFKGPRDYNPISSSICHLTNESDGHTTSLYGIGFGPFIITNKHLFRRNNGTLVVQSLHGVFKVKDTTTLQQHLVDGRDMIIIRMPKDFPPFPQKLKFREPQREERICLVTTNFQTKSMSSMVSDTSCTFPSGDGIFWKHWIQTKDGQCGSPLVSTRDGFIVGIHSASNFTNTNNYFTSVPKNFMELLTWQEAQQWVSGWRLNADSVLWGGHKVFMVKPEEPFQPVKEATQL [N193W],0.0843,0.0627,–,0.0626,–,0.0755,0.0574,–,–,0.0629,0.052,–,–,0.0689,0.0433,–,–,–,–
MGESLFKGPRDYNPISSSICHLTNESDGHTTSLYGIGFGPFIITNKHLFRRNNGTLVVQSLHGVFKVKDTTTLQQHLVDGRDMIIIRMPKDFPPFPQKLKFREPQREERICLVTTNFQTKSMSSMVSDTSCTFPSGDGIFWKHWIQTKDGQCGSPLVSTRDGFIVGIHSASNFTNTNNYFTSVPKNFMELLTNMEAQQWVSGWRLNADSVLWGGHKVFMVKPEEPFQPVKEATQL [Q194M],0.101,0.154,0.0887,0.0885,0.0916,0.0999,0.0717,0.0881,0.0636,–,0.0673,–,–,0.0931,0.0617,–,0.0652,–,–
